Assay results reported in the RNAGym collection of RNA variant scans (doi:10.1101/gad.245936.114).
Variants at the floor of the assay are shown more often than the library holds them.

B1: tRNA (parent)
chain: CUCUCGGUAGCCAAGUUGGUUUAAGGCGCAAGACUUUAAUUUAUCACUACGAAAUCUUGAGAUCGGGCGUUCGACUCGCCCCCGGGAGAUUUUUUCCUCGAGCAA

Variants of: B1
Assay: nonsense suppression (GFP-seq) (ratio to wild type); higher = more function; SUP4oc tRNA, yeast GFP reporter sort-seq
How it was run: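 Each variant's nonsense suppression (GFPSEQ) is a cell-share-weighted bin median GFP/RFP relative to the unmutated parent tRNA. Yeast with genome-integrated tRNA variants from a ~3% random-mutation library, a galactose-driven GFP ochre reporter and RFP were grown in raffinose/galactose medium with 80 mg/L adenine, then sorted into GFP/RFP bins for Illumina sequencing. Variants needed ≥100 reads and ≥30 cells.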

Nonsense suppression, ≤ 0.026:
CUCUCGGUAGCCAAGUUGGUUUGAGGCGCACGAGUUUAAUUUAUCACUACGAAAUCUUGAGAUCGGGCGUUCGACUCGCCCCCGGGAGAUUUUUUCCUCGAGCAA [A23G A31C C34G]
CUCUCGGUAGCCAAGUUGGUUUGAGGCGCAAGAGUUUAAUUUAUCACUACGAAGUCUUGAGAUCGGGCGCUCGACUCGCCCACGGGAGAUUUUUUCCUCGAGCAA [A23G C34G A54G U70C C82A]
CUCUCGGUAGCCAAGUUGGUUUCAGGCGCAAGAUUUUAAUUUAUCACUACGAAAUCUUGAGAUCGGGCGUUCGACUCGCCCCCGGGGGAUUUUUUCCUCGAGCAA [A23C C34U A87G]
CUCUCGGUAGCCAAGUUGGUUUGAGGCGCACGACUUUAAUUUAUCACUACGAAAUCUUGAGAUCGGGCGUUCGACUCGCCCCCGGGAGAUUUUUUCCUCGAGCAA [A23G A31C]
CUCUCGGUAGCCAAGUUGGUUUCAGGCGCAAGACUUUAAUUUAUCACUACGAAAUAUUGAGAUCGGGCGUUCGACUCGCCCCCGGGAGAUUUUUUCCUCGAGCAA [A23C C56A]
CUCUCGGUAGCCAAGUUGGUUUGAGGCGCAAGAGUUUAAUUUAUCACUACGAAAUCUUGAGAUCGGGCGUUCGACUCGCCCACGGGAGAUUUUUUCCUCGAGCAA [A23G C34G C82A]
CUCUCGGUAGCCAAGUUGGUUUCAGGCGCAAGACUUUAAUUUAUCACUACGAAAUCUUGAGACCGGGCGUUCGACUCGCCCCCGGGAGAUUUUUUCCUCGAGCAA [A23C U63C]
CUCUCGGUAGCCAAGUUGGUUUCAGGCGCAAGACUUUAAUUUAUCACUACGAAACCUUGAGAUCGGGCGUUCGACUCGCCCCCGGGAGAUUUUUUCCUCGAGCAA [A23C U55C]
CUCUCGGUAGCCAAGUUGGUUUCAGGCGCAAGACUUUAAUUUAUCACUACGAAAUCUUGAGAUCGGGUGUUCGACUCGCCCCCCGGAGAUUUUUUCCUCGAGCAA [A23C C68U G84C]
CUCUCGGUAGCCAAGUUGGUUUGAGGCGCUAGACUUUAAUUUAUCACUACGAAAUCUUGAGAUCGGGCGUUCGACUCGCCCCAGGGAGAUUUUUUCCUCGAGCAA [A23G A30U C83A]
CUCUCGGUAGCCAAGUUGGUUUGAGGCGCAAGGCUUUAAUUUAUCACUACGAAAUCUUGAGAUCGGGUGUUCGACUCGCCCCCGGGAGAUUUUUUCCUCGAGCAA [A23G A33G C68U]
CUCUCGGUAGCCAAGUUGGUUUCAGGCGCAAGACUUUAAUUUAUCACUACGAAAGCUUGAGAUCGGGCGUUCGACUCGCCCCCGGUAGAUUUUUUCCUCGAGCAA [A23C U55G G86U]
CUCUCGGUAGCCAAGUUGGUUUCAGUCGCAAGACUUUAAUUUAUCACUACGAAAUCUUGAGAUCGGGCGUUCGACUCGCCCCCGGGAGAUUUUUUCCUCGAGCAA [A23C G26U]
CUCUCGGUAGCCAAGUUGGUUUCAGGCGCAAGACUUUAAUUUAUCACUACGAAAUCUAGAGAUCGGGCGUUCGACUCGCCCCCGGGAGAUUUUUUCCUCGAGCAA [A23C U58A]
CUCUCGGUAGCCAAGUUGGUUUCAGGCGCAAGACUUUAAUUUAUCACUACGAAAUCCUGAGAUCGGGCGUUCGACUCGCCCCCGGGAGAUUUUUUCCUCGAGCAA [A23C U57C]
CUCUCGGUAGCCAAGUUGGUUUCAGGCGCAAGACUUUAAUUUAUCACUACGAAAUCUUGAGAUCGGGCGUUCGAUUCGCCCCCGGGAAAUUUUUUCCUCGAGCAA [A23C C75U G88A]
CUCUCGGUAGCCAAGUUGGUUUCAGGCGCAAGAAUUUAAUUUAUCACUACGAAAUCUUGAGAUCGGGCGUUCGACUCGCCCCCGGGAGAUUUUUUCCUCGAGCAA [A23C C34A]
CUCUCGGUAGCCAAGUUGGUUUCAGGCGCAAGAUUUUAAUUUAUCACUACGAAAUCUUGAGAUCGGGCGUUCGACUCGCCCCCGGGAGAUUUUUUCCUCGAGCAA [A23C C34U]
CUCUCGGUAGCCAAGUUGGUUUCAGGCGCAAGACUUUAAUUUAUCACUACGAAAUCUUGAGAUCGAGCGUUCGACUCGCCCCCGGCAGAUUUUUUCCUCGAGCAA [A23C G66A G86C]
CUCUCGGUAGCCAAGUUGGUUUCAGGCGCAAAACUUUAAUUUAUCACUACGAAAUCUUGUGUUCGGGCGUUCGACUCGCCCCCGGGAGAUUUUUUCCUCGAGCAA [A23C G32A A60U A62U]
CUCUCGGUAGCCAAGUUGGUUUGAGGCGCAAGCCUUUAAUUUAUCACUACGAAAUCUUGAGAUCGAGCGUUCGACUCGCCCCCGGGAGAUUUUUUCCUCGAGCAA [A23G A33C G66A]
CUCUCGGUAGCCAAGUUGGUUUGGGGUGCAAGACUUUAAUUUAUCACUACGAAAUCUUGAGGUCGGGCGUUCGACUCGCCCCCGGGAGAUUUUUUCCUCGAGCAA [A23G A24G C27U A62G]
CUCUCGGUAGCCAAGUUGGUUUGAGGCGCAAGACUUUAAUUUAUCACUACGAAAUAUUGAGACCGGGCGUUCGCCUCGCCCCCGCGAGAUUUUUUCCUCGAGCAA [A23G C56A U63C A74C G85C]
CUCUCGGUAGCCAAGUUGGUUUCAGGCGCAAGACUUUAAUUUAUCACUACGAAAUCUUGAGAUCAGGCGUUCGACUCGCCCCCGGGAGAUUUUUUCCUCGAGCAA [A23C G65A]
CUCUCGGUAGCCAAGUUGGUUUCAGGCGCAAGACUUUAAUUUAUCACUACGAAAUCUUGAGAUCGGGCGUUCGACUCGCCCCCGGUAGAUUUUUUCCUCGAGCAA [A23C G86U]
CUCUCGGUAGCCAAGUUGGUUUCAGGCGCAAGACUUUAAUUUAUCACUACGAAAUCUUGAGAUCGGGUGUUCGACUCGCCCCCGGGAGAUUUUUUCCUCGAGCAA [A23C C68U]
CUCUCGGUAGCCAAGUUGGUUUGAGGCGCUAGACUUUAAUUUAUCACUACGAAAUCUUGAGAUCGUGCGUUCGACUCGCCCCCGGGAGAUUUUUUCCUCGAGCAA [A23G A30U G66U]
